Source: the supplement of paper PMC6002552
The list shows a part of the results. Repeats are few or missing, and single values can be far off.

System: Bacillus subtilis 168 spores
Assay: spore germination/outgrowth inhibition class (0 mild or none, 1 inhibitory, 3 highly inhibitory, 4 no outgrowth, 5 no germination) (ordinal class code); higher = stronger inhibition of spore germination/outgrowth
Conditions: 100 µg/ml; pH 7.4; 8 h
Procedure: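 Heat-activated Bacillus subtilis 168 spores (OD595 0.2) in TSB with AGFK germinants, buffered with 80 mM MOPS at pH 7.4, were exposed to 100 µg/ml compound (Pyxis Discovery library, catalogue IDs). OD595 was followed for 8 h at 37 °C in a plate reader. Each compound was assigned an ordinal inhibition class: 0 mild/no inhibition (reached 2x initial OD within 2-3 h), 1 inhibitory (3-6 h), 3 highly inhibitory (6-8 h), 4 no outgrowth within 8 h, 5 no germination (no OD decline).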

Spore germination/outgrowth inhibition class, active:
N#CC1=C(N)Oc2n[nH]c(C(F)(F)F)c2C1c1cccc(Cl)c1Cl (stereo not drawn) 5, Cc1ccc2c(c1)c1c(n2C)-c2[nH]ncc2CC1 4, O=C1C(Cl)=C(NCc2ccco2)C(=O)c2ccccc21 4

Spore germination/outgrowth inhibition class, inactive:
CCCC(=O)N1CCc2cc(-c3nc(N)sc3C)ccc21 0, Cc1csc(NC(=O)Nc2ccccc2)n1 0, CCN(c1ccccc1)c1nc2nonc2n2cnnc12 0, Cc1ccc(C)c(-c2c(C)ccc(C)c2C(=O)O)c1C(=O)O 0, COc1ccc(C2C([N+](=O)[O-])=C(N)Oc3n[nH]c(C)c32)cc1 (stereo not drawn) 0, Cc1ccc(Nc2nnns2)c(C)c1 1, CCc1ccc(NC(=O)c2snnc2C)cc1 0, Cc1nnsc1C(=O)Nc1ccccc1 0, CCC(C)C(=O)N1CCc2cc(-c3csc(N)n3)ccc21 (stereo not drawn) 0, CC(C)c1[nH]nc2c1C(c1ccc(F)cc1)C(C#N)=C(N)O2 (stereo not drawn) 0, CC(C)c1[nH]nc2c1C(c1cccc(F)c1)C(C#N)=C(N)O2 (stereo not drawn) 0, CCc1cccc(NC(=O)c2snnc2C)c1 0, N#Cc1c(NC(=O)C2CCCO2)sc2c1CCCC2 (stereo not drawn) 0, c1coc(-c2nc3ccccc3o2)c1 0, COc1cccc(C2C([N+](=O)[O-])=C(N)Oc3n[nH]c(C)c32)c1 (stereo not drawn) 0
